{"source": "paper PMC4336329", "about": "(PLoS ONE, 2015)", "note": "Screen size: about 310,000 compounds; about 2,200 (0.71%) showed an effect of 50% or more. Effects have a minus sign here. The list shows a part of the results."}
{"target": "human ether-à-go-go-related gene (hERG) potassium channel (human, UniProt Q12809)", "sequence (Q12809 whole entry, looked up)": "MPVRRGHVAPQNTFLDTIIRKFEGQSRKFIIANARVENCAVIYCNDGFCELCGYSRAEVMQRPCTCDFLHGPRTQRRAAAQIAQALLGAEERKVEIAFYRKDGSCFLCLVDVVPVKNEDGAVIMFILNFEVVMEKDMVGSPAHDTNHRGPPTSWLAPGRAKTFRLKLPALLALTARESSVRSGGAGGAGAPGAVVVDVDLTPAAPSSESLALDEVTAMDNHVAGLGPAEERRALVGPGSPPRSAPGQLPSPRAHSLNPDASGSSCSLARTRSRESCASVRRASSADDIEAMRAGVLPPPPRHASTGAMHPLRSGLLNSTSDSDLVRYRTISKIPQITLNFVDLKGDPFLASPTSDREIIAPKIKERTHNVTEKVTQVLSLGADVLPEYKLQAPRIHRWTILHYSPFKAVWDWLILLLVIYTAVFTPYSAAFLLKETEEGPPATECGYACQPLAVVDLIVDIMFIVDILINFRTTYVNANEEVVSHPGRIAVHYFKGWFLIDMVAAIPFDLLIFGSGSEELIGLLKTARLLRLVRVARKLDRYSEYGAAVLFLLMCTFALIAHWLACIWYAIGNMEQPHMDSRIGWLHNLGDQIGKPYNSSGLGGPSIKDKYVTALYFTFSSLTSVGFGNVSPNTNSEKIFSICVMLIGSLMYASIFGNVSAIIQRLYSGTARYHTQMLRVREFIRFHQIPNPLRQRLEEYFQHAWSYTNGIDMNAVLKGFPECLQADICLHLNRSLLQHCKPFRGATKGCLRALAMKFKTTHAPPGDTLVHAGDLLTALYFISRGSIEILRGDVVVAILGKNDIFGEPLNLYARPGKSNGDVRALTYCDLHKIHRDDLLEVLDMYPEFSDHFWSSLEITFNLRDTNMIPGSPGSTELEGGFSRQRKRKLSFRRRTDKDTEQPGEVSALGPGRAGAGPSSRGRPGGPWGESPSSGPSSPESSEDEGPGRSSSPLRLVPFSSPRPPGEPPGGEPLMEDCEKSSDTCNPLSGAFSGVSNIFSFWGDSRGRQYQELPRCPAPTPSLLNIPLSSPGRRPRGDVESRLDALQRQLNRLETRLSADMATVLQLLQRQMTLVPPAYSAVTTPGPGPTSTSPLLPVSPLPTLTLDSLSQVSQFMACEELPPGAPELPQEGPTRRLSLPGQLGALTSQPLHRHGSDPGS", "test": "primary screen, population patch clamp on CHO cells stably expressing hERG", "units": {"hERG current change (%, negative = inhibition) at 1uM": "%"}}
{"smiles": "Cc1ccc(S(=O)(=O)N2CCCC2CNC(=O)C(=O)NC2CC2)cc1", "note": "(stereo not shown)", "hERG current change (%, negative = inhibition) at 1uM": 14.6}
{"smiles": "CCCCc1ccc(NC(=O)C(=O)NCCN2CCN(Cc3ccc([N+](=O)[O-])cc3)CC2)cc1", "hERG current change (%, negative = inhibition) at 1uM": -6.8}
{"smiles": "COc1ccccc1OCCNC(=O)c1ccccc1C", "hERG current change (%, negative = inhibition) at 1uM": 14.3}
{"smiles": "COc1ccc(NC(=O)c2c(C)nn(-c3ccccc3)c2Cl)cc1", "hERG current change (%, negative = inhibition) at 1uM": 15.5}
{"smiles": "CCn1nnnc1SCC(=O)c1ccc(C)cc1C", "hERG current change (%, negative = inhibition) at 1uM": 12.8}
{"smiles": "Cn1c(Sc2ccc(Cl)cc2)c(C=O)c2ccccc21", "hERG current change (%, negative = inhibition) at 1uM": 12.5}
{"smiles": "CCOc1ccc(S(=O)(=O)Nc2ccc(O)c(Sc3ncn[nH]3)c2)cc1", "hERG current change (%, negative = inhibition) at 1uM": 9.09}
{"smiles": "O=S(=O)([N-]c1nc2ccccc2nc1-n1cc[n+](Cc2ccccc2)c1)c1ccc(Br)cc1", "hERG current change (%, negative = inhibition) at 1uM": 18.1}
{"smiles": "COc1ccc(Nc2nc(S(=O)(=O)c3ccc(C)cc3)c(Cl)s2)cc1", "hERG current change (%, negative = inhibition) at 1uM": 11.6}
{"smiles": "CC(C)CN(C(=O)c1ccc([N+](=O)[O-])s1)c1c(N)n(Cc2ccccc2)c(=O)[nH]c1=O", "hERG current change (%, negative = inhibition) at 1uM": 12.7}
{"smiles": "CC(C)CCN1CC(O)=C(c2nc3ccccc3[nH]2)C1=N", "hERG current change (%, negative = inhibition) at 1uM": -5.93}
{"smiles": "O=C(Cc1ccccc1)NC(NCCCN1CCOCC1)(C(F)(F)F)C(F)(F)F", "hERG current change (%, negative = inhibition) at 1uM": 8.29}
{"smiles": "CCOCCCNC(=O)c1cccc(OC2CCN(S(C)(=O)=O)CC2)c1", "hERG current change (%, negative = inhibition) at 1uM": 10.8}
{"smiles": "CCOC(=O)c1[nH]c2ccc(Br)cc2c1NC(=O)CCN1CCCC(C)(C)C1", "hERG current change (%, negative = inhibition) at 1uM": -46.2}
{"smiles": "COc1cccc(CNc2ccc([N+](=O)[O-])cc2Cl)c1O", "hERG current change (%, negative = inhibition) at 1uM": 14.4}
{"smiles": "CCOC(=O)C(=O)/C(=C\\N(C)C)c1onc(-c2c(F)cccc2Cl)c1C(=O)OC", "hERG current change (%, negative = inhibition) at 1uM": 5.72}
{"smiles": "CCN(CC)S(=O)(=O)c1ccc(NC(=O)c2cccc3c2C(=O)N(CCOC)C3)cc1", "hERG current change (%, negative = inhibition) at 1uM": 0.268}
{"smiles": "CC(=O)N(CCc1ccccc1C)Cc1cc2ccc(C)cc2[nH]c1=O", "hERG current change (%, negative = inhibition) at 1uM": 9.04}
{"smiles": "Cc1ccc(NNC(=O)C(=O)N2CCCCC2)cc1", "hERG current change (%, negative = inhibition) at 1uM": 9.03}
{"smiles": "Nc1nc(COc2ccc(F)cc2)nc(N2CCCCC2)n1", "hERG current change (%, negative = inhibition) at 1uM": 11.2}
{"smiles": "COc1ccc(NC(=O)/C(=C/c2ccc3c(c2)OCO3)NC(C)=O)cc1", "hERG current change (%, negative = inhibition) at 1uM": 16.4}
{"smiles": "COc1ccc(OCCSc2nnc(CCNC(=O)c3ccc(OC)cc3)n2C)cc1", "hERG current change (%, negative = inhibition) at 1uM": 0.796}
{"smiles": "CCCC(=O)Nc1ccc(Nc2ccccc2)cc1", "hERG current change (%, negative = inhibition) at 1uM": 7.97}
{"smiles": "CCCC(=O)Nc1ccccc1NC(=O)C1CCCCC1", "hERG current change (%, negative = inhibition) at 1uM": 17.9}
{"smiles": "CN1CCN(c2ccc(NC(=S)NC(=O)/C=C/c3ccco3)cc2)CC1", "hERG current change (%, negative = inhibition) at 1uM": 13.8}
{"smiles": "CC(=O)C1=C(C)NC2=C(C(=O)c3ccccc32)C1c1ccccc1", "note": "(stereo not shown)", "hERG current change (%, negative = inhibition) at 1uM": 12.5}
{"smiles": "CCCc1cc(=O)oc2c(C)c(OCC(=O)NC3CCN(Cc4ccccc4)CC3)ccc12", "hERG current change (%, negative = inhibition) at 1uM": -19.4}
{"smiles": "COc1ccc(C(=O)NC(=S)Nc2ccc(N3CCCC3)cc2)cc1", "hERG current change (%, negative = inhibition) at 1uM": 14.2}
{"smiles": "COc1ccc(NC(=O)C(CC(=O)O)Cc2ccc(Cl)cc2)cc1", "note": "(stereo not shown)", "hERG current change (%, negative = inhibition) at 1uM": 10.8}
{"smiles": "COc1ccc2c(=O)c3c(=O)n(Cc4ccco4)c(-c4cc(OC)c(OC)c(OC)c4)nc3oc2c1", "hERG current change (%, negative = inhibition) at 1uM": -3.4}
{"smiles": "O=C(CN(C1CCCCC1)S(=O)(=O)c1ccc(Br)cc1)NCc1ccncc1", "hERG current change (%, negative = inhibition) at 1uM": -35}
{"smiles": "O=C(Nc1cccc(NC(=O)c2cc([N+](=O)[O-])ccc2Cl)n1)c1cc([N+](=O)[O-])ccc1Cl", "hERG current change (%, negative = inhibition) at 1uM": 0.608}
{"smiles": "Cc1ccc(NC(=O)c2cc3c(=O)oc4ccccc4c3s2)nc1", "hERG current change (%, negative = inhibition) at 1uM": 1.73}
{"smiles": "COC(C(=O)Nc1cc([N+](=O)[O-])ccc1C)c1ccccc1", "note": "(stereo not shown)", "hERG current change (%, negative = inhibition) at 1uM": -4.8}
{"smiles": "C#C[C@]1(O)CC[C@H]2[C@@H]3CCC4=C(CCC(=O)C4)[C@H]3CC[C@@]21C", "hERG current change (%, negative = inhibition) at 1uM": 19.4}
{"smiles": "CCCN(C(=O)COc1ccc(Cl)cc1Cl)c1c(N)n(Cc2ccccc2)c(=O)[nH]c1=O", "hERG current change (%, negative = inhibition) at 1uM": 6.92}
{"smiles": "Cn1cccc1C(=O)OCC(=O)Nc1cc(C(C)(C)C)nn1-c1ccccc1", "hERG current change (%, negative = inhibition) at 1uM": -10.2}
{"smiles": "O=C(N/C(=C/c1ccc(Br)cc1)C(=O)N1CCCCC1)c1ccccc1F", "hERG current change (%, negative = inhibition) at 1uM": -1.06}
{"smiles": "CC(C)N(Cc1nccn1C)C(=O)c1ccc(OC2CCN(C(=O)C3CC3)CC2)cc1", "hERG current change (%, negative = inhibition) at 1uM": 11.1}
{"smiles": "COC(=O)c1nn(-c2ccccc2)c(Sc2ccc(Br)cc2)c1/C=N/O", "hERG current change (%, negative = inhibition) at 1uM": 7.27}
{"smiles": "O=C(NCCNC(=O)c1ccc(Br)o1)c1cccnc1", "hERG current change (%, negative = inhibition) at 1uM": 12.5}
{"smiles": "CN(CC(=O)Nc1c(Cl)cccc1Cl)C(=O)c1cc(S(=O)(=O)N(C)C)ccc1N1CCCC1", "hERG current change (%, negative = inhibition) at 1uM": 12.5}
{"smiles": "CC1=CCC(Cc2nc3ccccc3o2)C1(C)C", "note": "(stereo not shown)", "hERG current change (%, negative = inhibition) at 1uM": 9.66}
{"smiles": "COc1ccccc1OCCn1c(=O)n(C)c2ccccc21", "hERG current change (%, negative = inhibition) at 1uM": 12.5}
{"smiles": "Cc1ccc(NC(=O)CSc2ccc(-c3cccnc3)nn2)cc1", "hERG current change (%, negative = inhibition) at 1uM": 4.84}
{"smiles": "CN(C)c1ccc(N=c2sc3ccccc3n2C)cc1", "hERG current change (%, negative = inhibition) at 1uM": 13}
{"smiles": "CC1CC(c2ccccc2)n2nc(N3C(=O)c4ccccc4C3=O)nc2N1", "note": "(stereo not shown)", "hERG current change (%, negative = inhibition) at 1uM": 12.1}
{"smiles": "O=C(NC1CC1)c1scc2c1OCCO2", "hERG current change (%, negative = inhibition) at 1uM": 13.1}
{"smiles": "CN(C)CC(O)COc1ccc(C(C)(C)c2ccc(OCC(O)CN(C)C)cc2)cc1.Cl", "note": "(stereo not shown)", "hERG current change (%, negative = inhibition) at 1uM": 12.6}
{"smiles": "CCOn1c(=O)c(-c2ccc(OC)c(OC)c2)[n+]([O-])c2ccccc21", "hERG current change (%, negative = inhibition) at 1uM": 11.5}
{"smiles": "O=C(Cn1nc(Cc2cccnc2)c2ccccc2c1=O)NCC1COc2ccccc2O1", "note": "(stereo not shown)", "hERG current change (%, negative = inhibition) at 1uM": -19.9}
{"smiles": "CC(=O)c1ccc(Nc2c(C)n(C)n(-c3ccccc3)c2=O)cc1", "hERG current change (%, negative = inhibition) at 1uM": 8.11}
{"smiles": "O=C(CSc1nnnn1-c1ccccc1F)Nc1nc2ccccc2s1", "hERG current change (%, negative = inhibition) at 1uM": -8.48}
{"smiles": "CCOc1ccc(NC(=O)CSc2nncc(=O)[nH]2)cc1", "hERG current change (%, negative = inhibition) at 1uM": 13.3}
{"smiles": "COc1ccc2c(c1)[nH]c(=O)c1sc3ccccc3c12", "hERG current change (%, negative = inhibition) at 1uM": 12.8}
